PubChem BioAssay AID493208 (National Center for Advancing Translational Sciences (NCATS), 2011)
Out of some 44,000 compounds screened, about 340 (0.77%) were called active. Not shown: some 5% with an inconclusive outcome. Calls follow the shape of the dose curve; as a rule, active = well fitted inhibition curve with a large enough effect; inconclusive = small, poorly fitted or top-dose-only effect; inactive = flat fitted curve, though single readings scatter. This is one part of the list.

Assay: Acumen qHTS Assay for Inhibitors of the mTORC1 Signaling Pathway in MEF (Tsc2-/-, p53-/-) Cells: Sytravon;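 also: plate controls were DMSO for no effect and rapamycin for full effect; nearly all actives have a fitted effect of over 50% in size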
Conditions: phospho-rpS6 immunofluorescence/PI, 24 h; series mostly up to 38.3 µM; activity change, negative = inhibition: at the top concentration
In short: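 Cell-based qHTS: Tsc2-/- p53-/- MEF, 24 h cpd, 37 °C; fix/perm, anti-phospho-S6 Alexa-488 + PI; Acumen 488 nm scan; pS6/PI ratio, % positive cells; rapamycin 7.5 nM = inhibition ref; PI count = viability.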

| SMILES | activity change, negative = inhibition |
| --- | --- |
| CCN1CCSc2ccc(C(=O)NCc3cccc(Br)c3)cc21 | inactive: -1.16% |
| CCCCOc1ccccc1C(=O)N(Cc1sccc1C)C1CCS(=O)(=O)C1 (stereo unspecified) | inactive: 6.41% |
| CC(C)(C)c1ccc(C(=O)N2CCCC(c3nc4c(nnn4Cc4cccc(F)c4)c(=O)[nH]3)C2)cc1 (stereo unspecified) | inactive: -0.0857% |
| Cc1ccc(-c2cn3nc(N4CCCC(C(=O)NCc5ccc(F)cc5)C4)sc3n2)cc1 (stereo unspecified) | inactive: -5.69% |
| COc1ccc(N2CCN(Cc3nc4c(c(=O)n(C)c(=O)n4C)n3C(C)C)CC2)cc1 | inactive: -1.58% |
| Cc1cc(C)cc(NC(=O)Cn2c(=O)n(-c3ccc(C)c(C)c3)c(=O)c3oc4ccccc4c32)c1 | inactive: 2.05% |
| Cc1ccc2nc(CN3CCN(S(=O)(=O)c4ccc(C(C)C)cc4)CC3)oc2c1 | inactive: 0% |
| CN(C)CCCn1c(-c2ccc(Cl)cc2)csc1=Nc1ccccc1 | inactive: -15.6% |
| COC(=O)c1ccc(NC(=O)CCn2cnnn2)c(C)c1 | inactive: -1.45% |
| COc1ccc(NC(=O)CN2C(=O)CSc3ccc(S(=O)(=O)N(C)C)cc32)cc1Cl | inactive: -4.33% |
| COc1ccc(NC(=O)C2CCN(C(=O)N3CCOc4ccccc43)CC2)cc1 | inactive: -11.3% |
| COc1ccc(CNC(=O)CCCn2c(=O)c3cccn3c3ccc(F)cc32)cc1OC | inactive: 3.28% |
| Cc1ccc(-n2ncc(C(=O)NCc3ccccn3)c2C2CCN(C(=O)OC(C)(C)C)CC2)c(C)c1 | inactive: 7.46% |
| COc1ccc(-c2noc(N3CCC(C(=O)Nc4ccc(OC)c(OC)c4)CC3)n2)cc1 | inactive: -14.7% |
| O=c1c2cc3c(cc2n(Cc2ccccc2)c(=O)n1Cc1nc(-c2ccccc2)no1)OCO3 | inactive: -3.7% |
| COc1ccc(NC(=O)N2CCN(S(=O)(=O)c3ccc4c(ccn4C)c3)CC2)cc1OC | inactive: -6.68% |
| COCCCNC(=O)C(C)n1c2ccccc2c2cnn(C)c(=O)c21 (stereo unspecified) | inactive: -8.8% |
| Cc1cccc(C)c1NC(=O)CN(Cc1ccc(Br)cc1)S(=O)(=O)c1ccccc1 | inactive: 1.62% |
| COc1ccc(Br)cc1CNC(=O)c1cc(=O)[nH]c2ccc(S(=O)(=O)N3CCCCC3)cc12 | inactive: 20% |
| CCCSc1nc(-c2ccc(OC)cc2)cc(-c2ccccc2OC)c1C#N | inactive: 4.49% |
| COc1ccc(Cl)cc1Nc1cc(C)nc2nc(-c3ccccc3C)nn12 | inactive: -0.237% |

| SMILES | activity change, negative = inhibition |
| --- | --- |
| CN(C)c1ccc(C(CNC(=O)c2cccc(C(F)(F)F)c2)N2CCCC2)cc1 (stereo unspecified) | inactive: 2.78% |
| CCOc1ccc(NC(=O)C2CCN(S(=O)(=O)c3c(C)noc3/C=C/c3c(C)cc(C)cc3C)CC2)cc1 | inactive: -16.8% |
| CCCC(=O)Nc1cccc(-c2cn3cccnc3n2)c1 | inactive: 0.703% |
| Cc1ccc(CNc2ncnc3c2c(-c2ccccc2)cn3-c2ccccc2)cc1 | inactive: -0.786% |
| CCOC(=O)c1ccc(NS(=O)(=O)c2ccc3c(c2)OCCO3)cc1 | inactive: -13.8% |
| COc1ccc(OC)c(CCNC(=O)Cn2ccc3cc(S(=O)(=O)N4CCCCC4)ccc32)c1 | inactive: -4.51% |
| COc1ccc(OC)c(-c2noc(N3CCN(c4cc(C)ccc4C)CC3)n2)c1 | inactive: -8.07% |
| CCN(CC)c1ccc(NC(=O)c2sc3ccccc3c2Cl)cc1 | inactive: -2.82% |
| CCCn1c(=N)c(C(=O)NCc2cccnc2)cc2c(=O)n3ccccc3nc21 | inactive: -6.75% |
| Cc1ccc(C)c(CNC(=O)c2ccc3c(c2)nc2n3CCC(C)C2)c1 (stereo unspecified) | inactive: -15.8% |
| Cc1ccc(N(C)S(=O)(=O)c2nnc(NC(=O)CC(C)C)s2)cc1 | inactive: 7.99% |
| COc1ccccc1-c1cc2nc(C)c(CCC(=O)NCCc3ccc(SC)cc3)c(C)n2n1 | inactive: 1.85% |
| CCOC(=O)c1cc(OC(=O)c2ccc(OC)cc2)n(-c2ccccc2)n1 | inactive: -1.35% |
| COc1ccc(NC(=O)C(Cc2ccccc2)NS(=O)(=O)c2ccc3c(c2)CCN3C(C)=O)cc1 (stereo unspecified) | inactive: -13.5% |
| CCOC(=O)Cc1ccc(NC(=O)Nc2cc3c(cc2N2CCCCC2)n(C)c(=O)n3C)cc1 | inactive: -2.67% |
| Cc1ccc(NC(=O)Cn2c(=O)ccc3cc(S(=O)(=O)N4CCC(C)CC4)ccc32)c(C)c1 | inactive: -5.46% |
| CCOC(=O)c1cc2c(=O)n3ccccc3nc2n(C)c1=NC(=O)c1c(-c2ccccc2Cl)noc1C | inactive: -5.13% |
| O=C(Nc1ccc(F)cc1F)c1ccc2c(c1)CCN2S(=O)(=O)c1ccc(Cl)cc1 | inactive: -8.33% |
| COc1ccc(-n2cc(C(=O)Nc3cc(F)ccc3F)c3ccccc3c2=O)cc1 | inactive: 6.63% |
| CCOc1ccc(CNC(=O)Cn2ccc3cc(S(=O)(=O)N4CCCCCC4)ccc32)cc1 | inactive: -6.27% |
| CCCCOC(=O)c1ccc(NC(=O)CC2NCCNC2=O)cc1 (stereo unspecified) | inactive: -1.65% |

| SMILES | activity change, negative = inhibition |
| --- | --- |
| COCCCNC(=O)C1CCC(CNS(=O)(=O)c2ccc(OC)cc2)CC1 (stereo unspecified) | inactive: -5.34% |
| COc1cccc(CNC(=O)C2CCN(Cc3cc4ccccc4n3Cc3ccc(C)cc3)CC2)c1 | inactive: -9.67% |
| COc1ccc2oc(=O)c(C(=O)Nc3cccc(C(=O)O)c3)cc2c1 | inactive: 0.667% |
| COc1cc(-c2cc3n(C)c(C)c(CCC(=O)NCc4ccccc4)c(=O)n3n2)cc(OC)c1OC | inactive: 5.93% |
| Cc1ccc(CNC(=O)CCCN2C(=O)CCn3nc(-c4cn(C)c5ccccc45)cc32)cc1 | inactive: -20.7% |
| Cc1ccc(Cn2c(CCCNC(=O)c3ccco3)nc3ccccc32)cc1 | inactive: -8.86% |
| Cc1nc2c(-c3ccccc3)c(C)nn2c(C)c1CCC(=O)NCc1ccc(Cl)cc1 | inactive: -7.75% |
| COc1ccc(CCNS(=O)(=O)c2ccc(N3CCCCS3(=O)=O)cc2)cc1OC | inactive: 0% |
| CCOC(=O)c1nnn(CC(=O)Nc2cc(C)cc(C)c2)c1C(=O)OCC | inactive: 2.88% |
| COc1ccccc1CNC(=O)c1cc2cccc3c2n1CC(C)S3 (stereo unspecified) | inactive: 0% |
| CS(=O)(=O)N(CC(=O)NCCSCc1ccccc1)c1cc(C(F)(F)F)ccc1Cl | inactive: -9.99% |
| O=C(Cn1cnc2onc(-c3ccc(F)cc3)c2c1=O)Nc1cccc(C(F)(F)F)c1 | inactive: -2.05% |
| COc1ccc(NC(=O)CC2C(=O)N(c3ccccc3)C(=O)N2C2CCCCC2)cc1 (stereo unspecified) | inactive: -1.09% |
| CCOC(=O)c1ccc(NC(=O)c2nc(SC(C)C)ncc2Cl)cc1 | inactive: 2.23% |
| Cc1ccc(C)c(Cn2cnc3c(cnn3-c3ccc(F)cc3)c2=O)c1 | inactive: 2.62% |
| CCN(Cc1ccccc1)S(=O)(=O)c1ccc2c(c1)CCCN2C(C)=O | inactive: -15.1% |
| CCc1ccc(NC(=O)N2c3ccccc3Sc3ccccc32)cc1 | inactive: 2.3% |
| Cc1cc(-c2ccccc2)n2nc(-c3cccc(Br)c3)cc2n1 | inactive: -7.32% |
| Cn1nc(C(=O)NCc2ccc(F)cc2)c2c1-c1ccccc1SC2 | inactive: -7.41% |
